Laboratory results published in PubChem BioAssay AID624417 (National Center for Advancing Translational Sciences (NCATS), 2012).
The campaign covered roughly 410,000 compounds. About 6,400 (1.6%) were called active. Inconclusive means that the source gave no clear call. Such entries were picked first, then a sample of the others. The call rests on the fitted dose curve; in most records, active means well fitted inhibition curve with a large enough effect; inconclusive means small, poorly fitted or top-dose-only effect; inactive means no such curve, though single readings can be large or run the other way. Potencies of inconclusive entries are left out as doubtful fits.

Target: Glucagon-like peptide 1 receptor (Homo sapiens) (UniProt P43220)
UniProt P43220, sequence (P43220 whole entry, looked up): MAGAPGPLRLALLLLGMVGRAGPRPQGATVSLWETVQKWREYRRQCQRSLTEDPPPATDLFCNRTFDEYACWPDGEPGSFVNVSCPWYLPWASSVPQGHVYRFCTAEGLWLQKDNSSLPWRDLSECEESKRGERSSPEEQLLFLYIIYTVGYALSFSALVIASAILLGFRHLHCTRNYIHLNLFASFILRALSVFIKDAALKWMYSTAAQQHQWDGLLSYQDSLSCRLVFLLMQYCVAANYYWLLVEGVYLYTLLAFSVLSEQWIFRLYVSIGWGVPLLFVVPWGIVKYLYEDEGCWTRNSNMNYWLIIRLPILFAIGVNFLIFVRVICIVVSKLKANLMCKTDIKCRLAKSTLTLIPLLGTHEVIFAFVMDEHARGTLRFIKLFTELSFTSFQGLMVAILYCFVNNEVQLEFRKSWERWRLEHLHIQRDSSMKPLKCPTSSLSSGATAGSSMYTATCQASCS
Assay: qHTS of GLP-1 Receptor Inverse Agonists (Inhibition Mode); further: nearly all actives have a fitted effect of over 55% in size
Conditions: HEK293 GLP-1R CRE-luciferase, luminescence, 24 h, GLP-1R form is constitutively active; activity change, negative = inhibition: at 38.3 µM (top of the series) unless noted
Summary of the method: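 Seeding at 200 cells/uL, 12 h culture, 24 hr compound treatment, then luciferase reagent and a luminescence read; cells are HEK293 stably expressing a constitutively active GLP-1R plus cAMP-responsive luciferase.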
On the % scale 0 is the no-effect control and ±100 the full control effect; potency means the concentration at half of the fitted maximal effect; tags describe the fitted curve by direction and shape.

SMILES | activity change, negative = inhibition | Potency
Cn1nc(C(=O)Nc2ccc3c(c2)OCCO3)cc1C(=O)O | inactive: -29.1% | 
Cn1nc(C(C)(C)C)cc1C(=O)N1CCCCC1c1cc(C(=O)NCc2ccccc2)no1 (stereo unspecified) |  | inconclusive [inhibitor, single point]
Cc1ccc(-n2c([S-])c(C(=O)Nc3ccc(OC(F)F)cc3)[n+]3ccc(C(=O)NCCO)cc23)cc1C | inconclusive: -30.5% [inhibitor] | 
CCN(CC)CC(=O)Nc1scc2c1c(=O)oc1ccccc12 | inactive: 30.7% | 
CC(C)(CNC(=O)c1ccc(Cl)c(S(=O)(=O)N2CCc3ccccc3C2)c1)N1CCOCC1 |  | inconclusive [inhibitor, partial curve, poor fit]
O=S(=O)(c1ccccc1Br)N(CC(O)COCc1ccccc1)C1CC1 (stereo unspecified) |  | inconclusive [inhibitor, single point]
O=C(NCc1ccccc1)c1ccc(-c2ccccc2C(F)(F)F)o1 |  | inconclusive [inhibitor, single point]
O=C(N/N=C/c1ccc2cccnc2c1)c1ccco1 |  | inconclusive [inhibitor, single point]
CN(C)C(=O)c1cn(-c2ccccc2)nc1-c1cccs1 | inactive: -9.14% | 
CC1Sc2ccc(S(=O)(=O)N3CCC(C(=O)Nc4ccc(Cl)cc4)CC3)cc2NC1=O (stereo unspecified) |  | inconclusive [inhibitor, partial curve, poor fit]
CCC1=C(OC(=O)N(CC)CC)N2C(=O)OC(=NCC3CC3)[C@]2(Cc2ccccc2)[C@H]2C1=CC[C@H]1C(=O)N(c3ccccc3)C(=O)[C@H]12 |  | inconclusive [inhibitor, single point]
COc1cccc(NC(=O)CCN2CCN(c3ccccc3F)CC2)c1 |  | inconclusive [inhibitor, partial curve, poor fit]
COc1ccccc1C1CCCN1Cc1nc(-c2ccc(C)s2)oc1C (stereo unspecified) |  | inconclusive [inhibitor, partial curve, poor fit]
Cc1ccc(-c2noc(CN(C)C(=O)c3ccc(Br)o3)n2)cc1 |  | inconclusive [inhibitor, single point]
COC(=O)/C=C1\OCc2cc(OC)c(OCc3ccccc3)cc21 | inactive: 3.2% | 
COc1ccc(C2CC(=O)Oc3c(C(CCN4CCCC(C)C4)c4ccc(N(C)C)cc4)c(OC)cc(OC)c32)cc1 (stereo unspecified) | inactive: 9.16% | 
CCOc1nc2ccccc2nc1NS(=O)(=O)c1ccc(Cl)cc1 |  | inconclusive [inhibitor, single point]
Cc1ccccc1N(C(=O)c1snc(C(N)=O)c1N)C(C(=O)NCc1ccccc1)c1ccc(O)cc1 (stereo unspecified) |  | inconclusive [inhibitor, single point]
Cc1cc(C)c(C)c(C(=O)CSc2nnc(-c3ccc4[nH]c(C)c(C)c4c3)o2)c1C |  | inconclusive [inhibitor, partial curve, poor fit]
C=Cc1ccc(CSc2nc(-c3ccc(C)cc3)nc3c2Cc2c(CO)cnc(C)c2O3)cc1 | inactive: -8.65% | 
CCN(CC(=O)NCc1ccc(F)cc1)C(=O)/C=C/c1ccc(OC)c(S(=O)(=O)NC(C)C)c1 |  | inconclusive [inhibitor, full curve, poor fit]

SMILES | activity change, negative = inhibition | Potency
COc1cc(NC(=O)CSc2nc(=O)n(CCN3CCOCC3)c3c2CCC3)cc(OC)c1 | inactive: -1.45% | 
CCC1=C2CC[C@H]3C(=O)N(C)C(=O)[C@H]3[C@H]2[C@@]2(Cc3ccccc3)C(=NCCOC)OC(=O)N2C1=O | inactive: 11.2% | 
NC(=S)N/N=C/c1c[nH]c2ccc(OCc3ccccc3)cc12 |  | inconclusive [inhibitor, single point]
CCC1CCC2(CC1)NC(=O)N(CC(=O)Nc1cccc(S(=O)(=O)N(C)c3ccccc3)c1)C2=O (stereo unspecified) |  | inconclusive [inhibitor, partial curve, poor fit]
O=C(c1ccc(CSc2nc3ccncc3n2Cc2ccccc2)cc1)N1CCCCCC1 |  | inconclusive [inhibitor, single point]
Cc1nc(N/N=C/c2cccc(F)c2)cc(N2CCOCC2)n1 |  | inconclusive [inhibitor, partial curve, poor fit]
Cc1ccc(-n2nc(C(=O)N3CCN(c4cc(Cl)ccc4C)CC3)c3c4ccccc4n(C)c3c2=O)cc1 | inactive: 0.209% | 
Cc1ccc(Cl)cc1-n1ncc2c(Nc3cccc(C)c3C)ncnc21 |  | inconclusive [inhibitor, partial curve, poor fit]
Cc1ccc(Nc2c(-c3ccccn3)nc3cccc(C)n23)cc1 |  | inconclusive [inhibitor, single point]
Cc1nc(-c2ccccn2)sc1C(=O)Nc1ccc(Cl)c(Cl)c1 |  | inconclusive [inhibitor, single point]
O=C(Nc1nnc(C2CC2)o1)c1ccc(S(=O)(=O)N2CCc3ccccc3C2)cc1 | inactive: -28.4% | 
CC(C)(C)C(=O)Cn1nnc(-c2ccc(C(F)(F)F)cc2)n1 |  | inconclusive [inhibitor, partial curve, poor fit]
Cc1ccc(NC(=O)Cn2ccn(-c3ccc(F)c(F)c3)c(=O)c2=O)cc1C | inactive: 12.6% | 
C(#Cc1ccccc1)CN1CCN(c2ccccn2)CC1 |  | inconclusive [inhibitor, partial curve]
O=C(Cn1cnc2ccccc21)Nc1cc(C(F)(F)F)ccc1N1CCOCC1 |  | inconclusive [inhibitor, single point]
Cc1ccc(N/N=C/c2ccc(N3CCOCC3)cc2)cc1C | inactive: 15.9% | 
CN1CCN(NC(=O)c2cc(-c3ccc(Br)s3)nc3ccccc23)CC1 |  | inconclusive [inhibitor, partial curve, poor fit]
Cc1ccc(C2c3[nH]c4ccccc4c3CCN2C(=O)CCC2CCCC2)cc1 (stereo unspecified) |  | active: 10 µM
O=C(COC(=O)C1(c2ccccc2F)CCCC1)NCc1cccs1 |  | inconclusive [inhibitor, partial curve, poor fit]
O=S(=O)(Nc1ccc2c(c1)OCO2)c1cccc(Br)c1 |  | inconclusive [inhibitor, single point]
